Measurements published in article PMC4336329 (PLoS ONE, 2015).
About 2,200 (0.71%) of roughly 310,000 compounds showed an effect of 50% or more. Effects have a minus sign here. This is one part of the list.

Target: human ether-à-go-go-related gene (hERG) potassium channel (human, UniProt Q12809)
Assay: primary screen, population patch clamp on CHO cells stably expressing hERG

Chain of human ether-à-go-go-related gene (hERG) potassium channel (Q12809 whole entry, looked up): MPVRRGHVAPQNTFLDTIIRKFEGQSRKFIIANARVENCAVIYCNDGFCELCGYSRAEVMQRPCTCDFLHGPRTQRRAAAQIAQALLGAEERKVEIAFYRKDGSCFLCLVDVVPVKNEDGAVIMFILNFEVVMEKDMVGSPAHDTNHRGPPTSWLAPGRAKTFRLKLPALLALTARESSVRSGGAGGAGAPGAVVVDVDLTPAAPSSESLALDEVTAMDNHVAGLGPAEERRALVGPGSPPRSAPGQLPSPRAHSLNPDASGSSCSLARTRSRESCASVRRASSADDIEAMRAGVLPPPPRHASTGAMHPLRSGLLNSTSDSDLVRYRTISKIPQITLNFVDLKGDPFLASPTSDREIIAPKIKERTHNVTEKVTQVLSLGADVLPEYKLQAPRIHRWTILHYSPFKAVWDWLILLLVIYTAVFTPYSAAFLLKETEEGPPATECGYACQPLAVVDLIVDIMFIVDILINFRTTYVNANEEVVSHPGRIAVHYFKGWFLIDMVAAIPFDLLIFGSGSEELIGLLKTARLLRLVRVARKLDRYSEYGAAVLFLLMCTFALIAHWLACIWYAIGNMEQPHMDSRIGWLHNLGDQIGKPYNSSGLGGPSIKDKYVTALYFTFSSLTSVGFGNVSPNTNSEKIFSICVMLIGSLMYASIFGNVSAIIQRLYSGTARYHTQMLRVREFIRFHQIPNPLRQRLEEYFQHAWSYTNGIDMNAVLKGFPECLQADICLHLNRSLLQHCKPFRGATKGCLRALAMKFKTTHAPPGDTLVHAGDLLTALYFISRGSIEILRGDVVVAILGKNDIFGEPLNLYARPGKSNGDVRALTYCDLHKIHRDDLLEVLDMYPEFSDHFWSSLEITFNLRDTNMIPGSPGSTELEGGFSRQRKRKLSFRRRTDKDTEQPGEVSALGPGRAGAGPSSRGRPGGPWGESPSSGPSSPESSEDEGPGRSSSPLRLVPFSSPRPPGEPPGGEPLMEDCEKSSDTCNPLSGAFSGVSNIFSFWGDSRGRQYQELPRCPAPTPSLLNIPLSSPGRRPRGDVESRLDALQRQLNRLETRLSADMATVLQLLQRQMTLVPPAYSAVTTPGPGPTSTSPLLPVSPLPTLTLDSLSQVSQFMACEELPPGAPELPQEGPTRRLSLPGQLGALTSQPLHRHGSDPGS

Row | Compound | hERG current change (%, negative = inhibition) at 1uM [%]
1 | O=C(Nc1ccc(Cl)c(Cl)c1)N1CCSCC1 | 2.27
2 | C=CCn1c(=O)c2c(nc(-c3ccc(S(=O)(=O)O)cc3)n2C)n(C)c1=O | 15.1
3 | CC(=O)Oc1ccc2c(=O)c(Oc3ccccc3)c(C)oc2c1OC(C)=O | 12.7
4 | COc1cccc(C(=O)Oc2cc(C)[nH]c(=O)c2[N+](=O)[O-])c1 | 4.45
5 | Cc1cc(C(=O)CSc2nnnn2C)c(C)n1-c1ccc2c(c1)OCCO2 | 0.31
6 | Cc1ccc(SCC(=O)NC(=O)NCc2ccccc2)c(C)c1 | 11.1
7 | CCCCCn1c(=O)c(C(=O)Nc2nc3ccccc3[nH]2)c(O)c2ccccc21 | 12.6
8 | CN1CCN(C(=O)c2ccc3c(=O)n(-c4ccc(F)cc4)c(=S)[nH]c3c2)CC1 | 11.4
9 | O=C(NCc1ccc2c(c1)OCO2)c1ccc(N2CCCCCC2)c([N+](=O)[O-])c1 | 14.8
10 | CC(=O)N/C(=C\c1ccc(Cl)cc1)C(=O)O | 15.2
11 | COc1ccccc1CNC(=O)COC(=O)/C=C/c1ccc(OC(F)F)c(OC)c1 | 4.73
12 | COc1ccc(S(=O)(=O)N2CCOCC2)cc1NC(=O)c1ccncc1 | 4.74
13 | COc1ccc(CNC(=O)C(NC(C)=O)C(=O)Nc2ccc(OC)cc2)cc1 (centres unmarked) | 12.9
14 | COc1ccc(-c2csc(=Nc3ccccc3)n2CCO)cc1 | 17.8
15 | COc1cc(C(=O)NCC(=O)NCCSc2ccc(Br)cc2)cc(OC)c1OC | 10.5
16 | O=C(c1ccco1)N1CCN(S(=O)(=O)c2ccc(Br)cc2)CC1 | 9
17 | CCOc1ccccc1NC(=S)N1CCN(c2ccccc2)CC1 | 7.91
18 | O=C(O)CSc1ncnc2c1sc1nc(-c3ccccc3)c3c(c12)CCC3 | 10.2
19 | CCSc1sc(CC)cc1C=O | 9.21

Row | Compound | hERG current change (%, negative = inhibition) at 1uM [%]
20 | CN(Cc1ccc(Cl)c(Cl)c1)C(=O)c1cccc(S(=O)(=O)N2CCN(Cc3ccccc3)CC2)c1 | 3.36
21 | COc1ccc(S(=O)(=O)N(CC(=O)NCC2CCCO2)c2ccc(Cl)cc2)cc1 (centres unmarked) | 3.43
22 | COc1ccc(-c2nnc3ccc(SCC(=O)Nc4nc5ccc(C)cc5s4)nn23)cc1OC | 10.7
23 | CCOc1ccc(C2C(C#N)=C(N)Oc3nc[nH]c(=O)c32)cc1OC (centres unmarked) | 9.81
24 | S=c1[nH]nc(C2CC2)n1Cc1ccccc1 | 30.9
25 | COc1ccc(Cn2c(=S)[nH]c3cc(C(=O)N4CCN(c5ccccc5)CC4)ccc3c2=O)cc1 | 16.7
26 | Cc1ccnc(NC(=O)/C=C/c2ccccc2[N+](=O)[O-])c1 | 17.8
27 | Cc1ccc(C)c(S(=O)(=O)NCc2ccc3c(c2)OCO3)c1 | 12.1
28 | Oc1ccc(-c2nccc(-c3ccccn3)n2)cc1 | 14.5
29 | Cc1ccc(C(=O)N/C(=C\c2cccs2)C(=O)NCCCN2CCOCC2)cc1 | -40.7
30 | COC(=O)Cc1ccc(NC(=S)NCCCN2CCOCC2)cc1 | 10
31 | COc1cc(NC(=O)CCc2nnc3ccc(N4CCCC4)nn23)cc(OC)c1OC | 9.17
32 | O=C(Cc1ccccc1F)OCN1C(=O)c2ccccc2C1=O | 14.7
33 | Cn1c(N)c(C(=O)COC(=O)C2CC(O)CN2S(=O)(=O)c2ccc(Cl)cc2)c(=O)n(C)c1=O (centres unmarked) | 7.81
34 | COc1ccccc1N1CCN(CC(=O)Nc2ccc(CN3CCCCC3)cc2)CC1.Cl | 7.6
35 | CC(=O)Nc1ccc(NC(=O)COc2ccc(-c3ccc(C#N)cc3)cc2)cc1 | 8.3
36 | Cc1nnc(NC(=O)CCSCCC(=O)Nc2nnc(C)s2)s1 | 9.93
37 | CCCCC(=O)Oc1c(S(=O)(=O)c2ccc(C)cc2)c(C)nn1C(C)(C)C | -10.8
38 | Cc1cccc(N(C)S(=O)(=O)c2ccc3c(c2)C(C)(C)C(=O)N3C)c1 | 9.57

Row | Compound | hERG current change (%, negative = inhibition) at 1uM [%]
39 | O=C(NCCOc1ccccc1)c1n[nH]c(=O)c2ccccc12 | 11.5
40 | CCC(C)NC(=O)c1nc2c(nnn2Cc2ccccc2Cl)c(=O)[nH]1 (centres unmarked) | 5.3
41 | CC(c1ccco1)N(C(=O)Nc1ccccc1)C1CCCCC1 (centres unmarked) | 9.92
42 | C=CCOc1ccc(C(c2c(O)nc(SC)[nH]c2=O)c2c(O)nc(SC)[nH]c2=O)cc1 | 13.5
43 | O=C(CC(c1ccccc1)c1cc(Br)ccc1O)NCCCN1CCOCC1 (centres unmarked) | -10.8
44 | CCOC(=O)c1[nH]c(C)c(C(=O)OCC(=O)N2CCCCC2C)c1C (centres unmarked) | 15.7
45 | CC1CCC2=NN(C(=O)c3ccco3)C(O)(C(F)(F)F)C2C1 (centres unmarked) | 13.6
46 | Cc1cccc(NC(=O)CN2C(=O)CSC2=O)c1 | -4.48
47 | CCCN(CC(=O)Nc1ccc(F)c(F)c1F)C(=O)Cc1ccc(S(=O)(=O)N2CCOCC2)s1 | 8.43
48 | Brc1ccc(-c2nnc3n2-c2ccccc2CC3)cc1 | -2.98
49 | CC(NC(=O)CSc1nc(C2CC2)n(-c2ccccc2)n1)c1ccco1 (centres unmarked) | -7.78
50 | CN(C)C(=O)c1ccc(Nc2nc(-c3cccs3)nc3ccccc23)cc1 | 4.89
51 | CN(C)CCN(C(=O)c1ccc(S(=O)(=O)N(C)C)cc1)c1nc2cc3c(cc2s1)OCCO3.Cl | -0.87
52 | Cc1cnc(NC(=O)C2CC(=O)N(c3cccc(Cl)c3)C2)s1 (centres unmarked) | -1.08
53 | Cc1cccc(N2CCN(C(=O)C3CCC(=O)N(C4CC4)C3)CC2)c1C (centres unmarked) | 12.6
54 | COc1ccc(-n2c(Cc3cccn3C)nnc2SCC(=O)NC2CCCC2)cc1 | 2.53
55 | CC1(C)CC2(C)OC(=N)C1(C#N)C2(C#N)C#N (centres unmarked) | 11.2
56 | CCOc1ccc(NC(=O)CCNS(=O)(=O)c2ccc(Br)s2)cc1 | -6.05
